Tests used:
2dV-Camuiα (rat) [1] = target: 2dV-Camuiα (rat) (UniProt P11275); assay: fluorescence correlation spectroscopy (FCS); 2-photon TCSPC FCS at 23 °C on HEK293FT cell lysates (M-PER, 5 mM EDTA) diluted 2 to 15-fold in PBS with protease inhibitor; diffusion coefficients from curve fitting, given for plasmid ratio = 1
2dV-Camuiα (rat) [2] = target: 2dV-Camuiα (rat) (UniProt P11275); assay: SEC; fluorescence-coupled SEC (FSEC): supernatant of sonicated transfected HEK293S GnTI- cells loaded directly onto Superose-6 in TBS (20 mM Tris-HCl pH 8.0, 200 mM NaCl), 0.4 ml/min; EGFP fluorescence 475/507 nm; approximate oligomeric state from retention time

diffusion coefficient (2dV-Camuiα (rat) [1]): 11 μm^2/s | stoichiometry N (2dV-Camuiα (rat) [2]): 12
Substance: 2dV-Camuiα (a stretch of the chain, no sequence given) (enzyme; other documents disagree on this pair)

From publication PMC11540904
